Screen size: about 350,000 compounds; about 260 (0.074%) were called active. Inconclusive results, whose numbers are uncertain, are shown with a selection of clear calls. Calls come from the whole dose curve; as a rule, active = well fitted inhibition curve with a large enough effect; inconclusive = small, poorly fitted or top-dose-only effect; inactive = no such curve, though single readings can be large or run the other way. Where the call is inconclusive, the potency comes from a doubtful curve fit.
biological target: Ferritin light chain (Equus caballus) (UniProt P02791); experiment: qHTS Assay for Identification of Novel General Anesthetics; settings: apoferritin/1-aminoanthracene competitive binding, fluorescence; series mostly up to 77.5 µM; note: nearly all actives have a fitted effect of over 20% in size
Sequence of UniProt P02791 (P02791 whole entry, looked up): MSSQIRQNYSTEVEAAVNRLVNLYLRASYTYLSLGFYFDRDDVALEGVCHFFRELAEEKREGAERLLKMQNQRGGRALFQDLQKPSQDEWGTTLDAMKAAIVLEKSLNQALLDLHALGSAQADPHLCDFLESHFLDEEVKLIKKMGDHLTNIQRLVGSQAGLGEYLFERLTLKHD
Outline: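 Probe: 1-aminoanthracene (50% saturated, PBS). Protein: horse-spleen apoferritin, 10 uM. Incubation: 10 min, room temperature. Detection: 380 nm excitation, 535 nm emission. Analysis: normalized response, four-parameter Hill.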
Potency is the fitted concentration of half-maximal effect; tags give direction and shape of the fitted curve.

| SMILES | Potency |
| --- | --- |
| CCc1ccccc1NS(=O)(=O)Cc1ccccc1 | inconclusive: 39.8 µM [inhibitor, partial curve] |
| CCC(C)(C)NC(=O)c1sccc1Oc1ccc(F)cc1[N+](=O)[O-] | inconclusive: 39.8 µM [inhibitor, single point] |
| CCc1cc2c3c(c(=O)oc2cc1OCC(=O)OC)CCCC3 | inconclusive: 39.8 µM [inhibitor, single point] |
| CCc1ccc(NC(=O)CSC2=Nc3ccccc3C3=NC(CCC(=O)NCc4ccccc4)C(=O)N23)cc1 (configuration not stated) | inconclusive: 2 µM [inhibitor, full curve] |
| Cc1ccc(SCn2nnc3ccccc3c2=O)c(C)c1 | inconclusive: 25.1 µM [inhibitor, partial curve] |
| CCCCc1ccc(NC(=O)Nc2cccnc2)cc1 | inconclusive: 56.2 µM [inhibitor, partial curve] |
| Cc1ccsc1CN1CCc2nc(Nc3ccccc3)ncc2C1 | inconclusive: 56.2 µM [inhibitor, single point] |
| COc1cccc2cc(C(=O)C3=C(O)C(=O)N(CCN4CCOCC4)C3c3cccs3)oc12 (configuration not stated) | inconclusive: 39.8 µM [inhibitor, partial curve] |
| CCCCC(=O)OC1=C(C(=O)c2ccccc2)N(CCC)S(=O)(=O)c2ccccc21 | inconclusive: 28.2 µM [inhibitor, partial curve, poor fit] |
| O=C(/C=C/c1ccc(Cl)cc1Cl)c1ccc[nH]1 | inconclusive: 22.4 µM [inhibitor, partial curve] |
| CC(C)(C)n1ncc2c(=O)n(CC(=O)c3ccc(Cl)cc3)cnc21 | inconclusive: 35.5 µM [inhibitor, partial curve] |
| Cc1cc(C)c(NC(=O)c2sc3nc(C)[nH]c(=O)c3c2C)c(C)c1 | inactive |
| CC(C)(C)c1ccc(OCCOCCn2cnc3ccccc3c2=O)cc1 | inconclusive: 17.8 µM [inhibitor, partial curve] |
| S=C(Nc1ccc(N2CCOCC2)cc1)Nc1ccc2snnc2c1 | inconclusive: 25.1 µM [inhibitor, single point] |
| Cc1cccc(OCC(=O)O/N=C(\N)Cc2ccc([N+](=O)[O-])cc2)c1 | inconclusive: 35.5 µM [inhibitor, partial curve] |
| Cc1cc(C)c2c(=O)n(CC(=O)NCCCN3CCN(c4ccccc4F)CC3)sc2n1 | inactive |
| C/C(CC(=O)Nc1cccc(Cl)c1Cl)=N\NC(=O)c1ccccc1C | inconclusive: 31.6 µM [inhibitor, single point] |
| COc1ccc(NC(=O)CCCc2ccccc2)cc1OC | inactive |
| O=C(CSCn1nnc2c(=O)[nH]c(Cc3ccc(F)cc3)nc21)Nc1cccc(C(F)(F)F)c1 | inconclusive: 35.5 µM [inhibitor, partial curve] |
| COc1ccc(CCNC(=O)Cn2c(=O)n(Cc3ccco3)c(=O)c3ccc(Cl)cc32)cc1OC | inconclusive: 15.8 µM [inhibitor, partial curve] |
| CCc1ccc(CN2CCC(n3nccc3NC(=O)c3ccccc3C)CC2)cc1 | inconclusive: 11.2 µM [inhibitor, partial curve] |
| CCOc1ccc(NS(=O)(=O)c2cc3c(cc2Cl)NC(=O)CO3)cc1 | inconclusive: 31.6 µM [inhibitor, single point] |
| COCCCn1c(SCC(=O)Nc2ccc(C(C)=O)cc2)nc2ccccc2c1=O | inconclusive: 31.6 µM [inhibitor, partial curve] |

| SMILES | Potency |
| --- | --- |
| COc1cc2c(cc1OC)C(COc1cccc(C(F)(F)F)c1)N(C(=O)c1ccc(S(=O)(=O)N3CCCC3)cc1)CC2 (configuration not stated) | inactive |
| COc1cccc(-c2cc(=O)c3ccc(OC)cc3o2)c1 | inactive |
| NC(=O)NCC12CC3CC(CC(C3)C1)C2 | inconclusive: 12.6 µM [inhibitor, partial curve] |
| COc1ccc(C)cc1NC(=O)CC(O)(C(F)(F)F)C(F)(F)F | inconclusive: 28.2 µM [inhibitor, partial curve] |
| Cc1ccc(CCNC(=O)CS(=O)Cc2nc(-c3ccccc3Cl)oc2C)cc1 (configuration not stated) | inconclusive: 20 µM [inhibitor, partial curve] |
| Cc1ccc(N(C(C)C(=O)N2CCN(Cc3ccccc3)CC2)S(C)(=O)=O)cc1 (configuration not stated) | inconclusive: 50.1 µM [inhibitor, single point] |
| COc1cccc(C(=O)NCC(=O)N/N=C(\C)Cc2ccccc2)c1 | inconclusive: 50.1 µM [inhibitor, single point] |
| O=C(c1ccc(CN2CCOCC2)cc1)N1CCC(Cc2ccccc2)CC1 | inconclusive: 39.8 µM [inhibitor, single point] |
| COc1ccccc1Cn1c(=S)[nH]c2ccc(Br)cc2c1=O | inactive |
| Cc1cc(O)c(C(=O)Cc2csc(C)n2)c(O)c1 | inconclusive: 22.4 µM [inhibitor, single point] |
| O=c1cccccc1NCc1ccccc1 | inconclusive: 10 µM [inhibitor, partial curve] |
| CCOc1ccc(NC(=O)CC2SC(=O)N(c3ccccc3)C2=O)cc1 (configuration not stated) | inconclusive: 31.6 µM [inhibitor, partial curve] |
| C=CCC1(C#N)C(SC)=NC2=C(C(=O)CC(C)(C)C2)C1c1ccc(Br)cc1 (configuration not stated) | inconclusive: 14.1 µM [inhibitor, partial curve] |
| COc1ccc(/C(C)=N/NC(=O)CNC(=O)Cc2ccccc2)c(OC)c1 | inconclusive: 22.4 µM [inhibitor, single point] |
| CCCC(=O)Nc1ccc(C(=O)NN=C(C2CC2)C2CC2)cc1 | inactive |
| O=C1c2cccnc2C(=O)N1Cc1ccco1 | inconclusive: 35.5 µM [inhibitor, partial curve] |
| CC1CCCCC12NC(=O)N(CC(=O)NCc1ccc3c(c1)OCO3)C2=O (configuration not stated) | inconclusive: 35.5 µM [inhibitor, single point] |
| Cc1ccc(SCCC(=O)OCn2nnc3ccccc3c2=O)cc1 | inconclusive: 35.5 µM [inhibitor, partial curve] |
| Cc1cc(=O)n(Cc2ccccc2)c(O)c1C#N | inactive |
| COC(=O)c1c(CSc2ccc(C)c(C)c2)noc1C(=O)NCc1ccc(OC)cc1 | inconclusive: 28.2 µM [inhibitor, partial curve] |
| Cc1cccc(NC(=O)CSc2nc(-c3ccccc3)c(C#N)c(=O)[nH]2)c1C | inconclusive: 8.91 µM [inhibitor, full curve] |
| COc1ccc(C2=COc3ccccc3C(=O)N2)cc1 | inconclusive: 35.5 µM [inhibitor, single point] |
| Cc1cc(C)n(-c2ccc(C(=O)OCC(=O)Nc3ccc(S(=O)(=O)N4CCOCC4)cc3)cc2)n1 | inconclusive: 6.31 µM [inhibitor, full curve] |

| SMILES | Potency |
| --- | --- |
| O=C(CN1N=C(c2ccc(Cl)cc2)CCC1=O)NCCc1ccc(Cl)cc1 | inconclusive: 11.2 µM [inhibitor, single point] |
| Cc1ccc(C2=NS(=O)(=O)N(C)C(C(=O)N(C)C3CCCCC3)=C2)cc1 | inconclusive: 35.5 µM [inhibitor, single point] |
| CCOc1ccccc1CN1CCN(S(=O)(=O)c2ccccc2)CC1 | inactive |
| COc1ccccc1NC(=O)CSC1=Nc2ccccc2C2=NC(CC(=O)NCc3ccco3)C(=O)N12 (configuration not stated) | inconclusive: 10 µM [inhibitor, single point] |
| CCn1nc(C)c(Br)c1Nc1ccc(Br)cc1 | inconclusive: 50.1 µM [inhibitor, single point] |
| CCCc1nn2c(=O)cc(COC(=O)c3ccccc3NC(=O)COc3ccccc3F)nc2s1 | inactive |
| CCc1ccc(NC(=O)NCC2CCN(Cc3cccc(Cl)c3)CC2)cc1 | inactive |
| Cc1ccc(CNC(=S)NC2CCC(C(C)(C)C)CC2)cc1 (configuration not stated) | inconclusive: 8.91 µM [inhibitor, full curve, poor fit] |
| CCc1ccc(-n2nc(C)c3c(C)cc(=O)n(Cc4nc(-c5ccccc5)oc4C)c32)cc1 | inconclusive: 35.5 µM [inhibitor, partial curve] |
| CC12CC3CC(C)(C1)CC(C(=O)NC(=S)N1CCCCC1)(C3)C2 | inconclusive: 39.8 µM [inhibitor, partial curve] |
| Clc1ccc(SCc2cn3cccnc3n2)cc1 | inconclusive: 25.1 µM [inhibitor, partial curve] |
| COc1ccc2c(C)c(CC(=O)N3CCN(C(=O)C4COc5ccccc5O4)CC3)c(=O)oc2c1C (configuration not stated) | inactive |
| COc1cc(/C=C/C(=O)OCC(=O)N2CCc3ccccc3C2)ccc1O | inconclusive: 31.6 µM [inhibitor, partial curve] |
| Cc1ccccc1N1C(=O)CC(Nc2ccc3c(c2)OCO3)C1=O (configuration not stated) | inactive |
| Cc1cccc(N2CCN(C(=O)Cn3nc(C)n4cccc4c3=O)CC2C)c1 (configuration not stated) | inconclusive: 56.2 µM [inhibitor, single point] |
| Cc1c(/C=N\NC(=O)C2COc3ccccc3O2)c2ccccc2n1C (configuration not stated) | inactive |
| Cc1ccc(Cc2c(C)nc3nc(SCC(=O)NC4CCC(C)CC4)nn3c2C)cc1 (configuration not stated) | inactive |
| COc1ccc(O)c(C(=O)CC(=O)c2ccccc2C)c1 | inconclusive: 22.4 µM [inhibitor, partial curve] |
| Cc1cccc(-c2cnn(-c3cccc([N+](=O)[O-])c3)c2N)c1 | inconclusive: 28.2 µM [inhibitor, partial curve] |
| Cc1nn(Cc2ccc(Cl)c(Cl)c2)c(C)c1NC(=O)c1noc2c1CCCCC2 | inconclusive: 11.2 µM [inhibitor, single point] |
| CC(=O)c1cccc(NC(=S)NC(=O)CC(C)(C)C)c1 | inconclusive: 35.5 µM [inhibitor, partial curve] |

Source: PubChem BioAssay AID485281 (National Center for Advancing Translational Sciences (NCATS), 2010)
